# Laboratory results as given in publication PMC4336329 (PLoS ONE, 2015).
# Out of some 310,000 compounds screened, about 14,000 (4.5%) showed an effect of 50% or more. The effect is printed as a negative number. Some of the results follow.
# Target: human ether-à-go-go-related gene (hERG) potassium channel (human, UniProt Q12809)
# Assay: primary screen, population patch clamp on CHO cells stably expressing hERG
# 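Further: peak tail current of the secondary pulse compared with the same well before compound.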
# Chain of human ether-à-go-go-related gene (hERG) potassium channel (Q12809 whole entry, looked up): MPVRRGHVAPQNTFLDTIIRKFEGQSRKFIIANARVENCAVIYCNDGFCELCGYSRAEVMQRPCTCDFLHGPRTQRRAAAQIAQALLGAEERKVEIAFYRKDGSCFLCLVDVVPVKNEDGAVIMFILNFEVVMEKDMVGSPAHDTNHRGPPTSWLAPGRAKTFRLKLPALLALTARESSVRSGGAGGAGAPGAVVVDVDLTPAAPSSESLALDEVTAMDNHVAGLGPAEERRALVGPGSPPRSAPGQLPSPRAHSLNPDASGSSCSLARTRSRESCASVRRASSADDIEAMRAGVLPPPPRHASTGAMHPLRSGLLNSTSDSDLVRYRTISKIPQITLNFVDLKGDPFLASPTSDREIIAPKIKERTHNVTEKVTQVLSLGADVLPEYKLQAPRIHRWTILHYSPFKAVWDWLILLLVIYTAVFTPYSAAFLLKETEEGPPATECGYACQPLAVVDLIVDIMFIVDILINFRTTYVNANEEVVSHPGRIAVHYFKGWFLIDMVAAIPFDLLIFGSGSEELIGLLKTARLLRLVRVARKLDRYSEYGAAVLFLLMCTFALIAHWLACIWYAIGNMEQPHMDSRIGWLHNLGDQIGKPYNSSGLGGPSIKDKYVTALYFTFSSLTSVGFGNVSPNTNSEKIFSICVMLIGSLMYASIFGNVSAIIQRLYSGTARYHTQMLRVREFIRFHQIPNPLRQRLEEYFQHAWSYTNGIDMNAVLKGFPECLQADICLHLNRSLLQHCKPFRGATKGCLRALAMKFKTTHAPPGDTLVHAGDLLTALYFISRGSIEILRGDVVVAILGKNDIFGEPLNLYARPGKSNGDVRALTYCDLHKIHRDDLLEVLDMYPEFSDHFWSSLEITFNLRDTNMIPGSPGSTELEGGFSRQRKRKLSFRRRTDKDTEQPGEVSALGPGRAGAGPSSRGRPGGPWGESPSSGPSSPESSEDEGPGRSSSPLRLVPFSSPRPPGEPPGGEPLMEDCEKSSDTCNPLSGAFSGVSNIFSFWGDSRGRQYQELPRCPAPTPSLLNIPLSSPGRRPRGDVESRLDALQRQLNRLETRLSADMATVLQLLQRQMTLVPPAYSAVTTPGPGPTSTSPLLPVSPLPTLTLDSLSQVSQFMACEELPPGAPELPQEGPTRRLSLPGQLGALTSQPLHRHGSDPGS
row,Structure (SMILES),"hERG current change (%, negative = inhibition) at 10uM [%]"
1,COc1ccccc1CNC(=O)C1CCN(S(=O)(=O)c2ccc3c(c2)CC(C)N3C(=O)C2CC2)CC1 (stereo not drawn),3.51
2,CC(C)NC(=O)c1ccc2c(=O)n(Cc3ccco3)c(=S)[nH]c2c1,5.96
3,O=C(Nc1ccc2nsnc2c1)N1CCCCCC1,-3.71
4,COc1cc2c(cc1OC)C1=C(C#N)CCC(=O)N1CC2,5.55
5,Cc1ccc(NC(=O)CCl)c(C)c1,21.6
6,O=C(CSC(=S)N1CCCC1)c1cc(Br)cc(Br)c1O,19.2
7,O=C(CSc1nnc(-c2ccccc2F)n1C1CC1)NCc1ccco1,-12.8
8,CCN1CCN(S(=O)(=O)c2c[nH]c(C(=O)OC)c2)CC1,7.98
9,COc1ccc(/C=C/C(=O)OC(C)CN2CCCCC2)cc1.Cl (stereo not drawn),-26.2
10,Cc1sc2ncn(CC(=O)N3CCC(C(N)=O)CC3)c(=O)c2c1S(=O)(=O)N1CCOCC1,9.52
11,O=C(Nc1ccccc1)C1CC2CCC1C2 (stereo not drawn),12.8
12,Cl.N=C1c2ccccc2CN1CC(=O)c1ccccc1,-25.1
13,CS(=O)(=O)N1CCC(C(=O)NCc2ccncc2)CC1,5.2
14,CC(OC(=O)CCNS(=O)(=O)c1cccs1)C(=O)Nc1ccc(S(N)(=O)=O)cc1 (stereo not drawn),0.281
15,CCN(CC)C(=O)c1[nH]cnc1C(=O)N[C@@H](C)c1ccccc1,20.2
16,CCN(CC1CCCO1)C(=O)C1CCN(C2CCN(Cc3ccccc3C)CC2)CC1 (stereo not drawn),1.77
17,Cc1ccc(Cn2nnc3c(=O)n(CC(=O)NCc4ccc5c(c4)OCO5)cnc32)cc1,-12.6
18,CC(C)OCCCNC(=O)COc1ccc2oc3c(c2c1)CCCC3,-4.97
19,CCN1C(=O)C(=O)N(CC(=O)c2cc(C)n(C3CC3)c2C)C1=O,-3.71

row,Structure (SMILES),"hERG current change (%, negative = inhibition) at 10uM [%]"
1,COc1ccc(NC(=S)NC(NC(C)=O)C(Cl)(Cl)Cl)c([N+](=O)[O-])c1 (stereo not drawn),0.178
2,NS(=O)(=O)c1ccc(CCNC(=O)C2CCN(c3ncnc4c3nc3n4CCCCC3)CC2)cc1,9.07
3,O=C(c1cc(Br)c(Br)s1)N1CCN(c2ccccn2)CC1,-14.2
4,Cc1c(NCc2ccccc2O)c(=O)n(-c2ccccc2)n1C,-4.34
5,Cc1[nH]c(=O)[nH]c(=O)c1Sc1ccccc1[N+](=O)[O-],20.1
6,CCCCCCNCC(=O)N1CCC(Cc2ccccc2)CC1,-71.7
7,Cc1ccc2nsnc2c1NC(=O)c1ccc(-c2cc(Cl)ccc2Cl)o1,11.7
8,O=c1nc2ccc(Cl)cn2c2ccc(S(=O)(=O)N3CCOCC3)cc12,-6.92
9,CCCC(C)c1nnc(NC(=O)CS(=O)(=O)Cc2ccccc2)s1 (stereo not drawn),2.52
10,O=C(NCCCN1CCCC1=O)Nc1ccccc1F,18.7
11,O=C(Nc1cccc(N2C(=O)C3C4C=CC(C4)C3C2=O)c1)c1cccs1 (stereo not drawn),23.2
12,COCCn1c(SCC(=O)Nc2cccc(OC)c2)nnc1-c1ccccc1,-17.4
13,N#Cc1c(Sc2ncc(C(F)(F)F)cc2Cl)nsc1C/C=N\OCc1ccccc1Br,2.35
14,COc1cccc(-n2cc(-c3ccc(F)cc3)[nH]c2=S)c1,-17.5
15,COc1cc(C=O)ccc1OCCOCCOc1cc(C)ccc1Cl,-20.7
16,COc1ccc2c(c1)OC1=C(C(=O)CCC1)C2C1=C(O)CCCC1=O (stereo not drawn),10.7
17,CC(CC(=O)O)CC(=O)Nc1cccc([N+](=O)[O-])c1 (stereo not drawn),11.4
18,COc1cc(C(=O)N2CCc3ccccc32)c([N+](=O)[O-])cc1OC,17.2
19,O=C(O)c1ccccc1-c1csc(-c2ccccc2)n1,5.06

row,Structure (SMILES),"hERG current change (%, negative = inhibition) at 10uM [%]"
1,CCN(CC)c1ccc(/C=N/N2C(C)CCCC2C)c(O)c1 (stereo not drawn),-4.12
2,Cn1c(SCC(=O)Nc2ccc3c(c2)OCCO3)nnc1-c1cccnc1,12
3,CC(NC(=O)Nc1ccc2c(c1)OCO2)C1CCCO1 (stereo not drawn),14.4
4,CCCCCC(=O)OC(CN1CCCC1=O)C[NH+]1CCCCCC1.[Cl-] (stereo not drawn),-3.84
5,COC(=O)c1ccc(CSc2nnc(NC(=O)C3CC(=O)N(c4ccc5c(c4)OCCO5)C3)s2)cc1 (stereo not drawn),4.54
6,NC(=O)CSc1nnc(COc2ccccc2)n1Cc1ccco1,14
7,COc1cccc(N(CC(=O)Nc2cccc(F)c2)S(C)(=O)=O)c1,-3.51
8,Cc1ccc(CNC(=O)c2ccccc2SCC(=O)NCC2CCCCC2)cc1,-6.47
9,CCOC(=O)C1(C)NC(c2cccs2)C2C(=O)N(c3ccccc3)C(=O)C21 (stereo not drawn),9.37
10,Cc1n[nH]c(C)c1N1C(=O)c2cccc3c(Br)ccc(c23)C1=O,12.1
11,Cc1ccc(NC(=O)NCc2c(C)nn(C)c2C)cc1Cl,8
12,Fc1ccc(-c2csc(N3CCSCC3)n2)cc1,17.6
13,COc1cc(/C=C2\SC(=S)N(Nc3ccccc3)C2=O)ccc1O,2.26
14,Cc1cccc(NC(=O)NCC(c2ccc(F)cc2)N2CCN(C)CC2)c1 (stereo not drawn),-42.6
15,O=C(Nc1nc(-c2ccc(S(=O)(=O)N3CCCCCC3)cc2)cs1)c1cccs1,6.39
16,COc1cccc2c1Oc1ncccc1N(C(=O)CCC(=O)NCc1ccccc1Cl)C2,-18.9
17,C=CCN1C(=O)NC(=O)/C(=C\c2ccc(-c3ccccc3[N+](=O)[O-])o2)C1=O,0.207
18,COc1ccc(-c2cc(C(F)(F)F)nc(S(=O)(=O)CCC(=O)N3CCOCC3)n2)cc1,4.34
19,O=C(COC(=O)CNS(=O)(=O)c1ccc(F)c(F)c1F)NCCc1ccccc1,-10.4
